Where a name gives a salt, the structure may show the parent alone. This is one part of the list. Repeats are few or missing, and single values can be far off.
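Further: KCNR is a neuroblastoma cell line carrying an ALK mutation, in this DMSO arm without trametinib, viability was normalised to solvent-treated cells.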

The subject of one test is KCNR. The test can be described thus: area under viability curve (10 nM-1 µM), viability relative to solvent or trametinib-only control (AUC (arbitrary, % viability x concentration range)); higher = less growth inhibition (more viable cells). The note with it: 72 h compound exposure (96 h after seeding) h; trametinib co-treatment 0 µM. As for the experimental part:
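Four neuroblastoma cell lines (KCNR, SKNBE, SJNB8, SKNAS) were seeded in 384-well plates. At 24 h, 1 µM trametinib or DMSO was added, followed by library compounds at 10 nM, 100 nM and 1 µM. Viability was read by MTT at 96 h and normalised to solvent-treated cells (DMSO arm) or to trametinib-only cells (trametinib arm). The area under the 3-point viability curve was computed in GraphPad Prism; units are as given (approx. 100000 = no effect).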
For the compound `COc1cccc2c1C(=O)c1c(O)c3c(c(O)c1C2=O)C[C@@](O)(C(C)=O)C[C@@H]3O[C@H]1C[C@H](NC(=O)OCc2ccc(O[C@@H]3O[C@H](CO)[C@H](O)[C@H](O)[C@H]3O)c([N+](=O)[O-])c2)[C@H](O)[C@H](C)O1`, the “area under viability curve” value was 50400.
On the same count and under the same terms, for `Cc1cc(NC(=O)Nc2ccc(N(C)C)cc2)c2cc(F)cc(F)c2n1` the value was 101000.
Same read-out and setting: the value for `Cc1cc2c(F)c(Oc3ncnn4cc(OC[C@@H](C)OC(=O)[C@H](C)N)c(C)c34)ccc2[nH]1` [Brivanib alaninate] was 107000.
On the same count and under the same terms, for `CC[C@]1(O)C[C@H]2CN(CCc3c([nH]c4ccccc34)[C@@](C(=O)OC)(c3cc4c(cc3OC)N(C=O)[C@H]3[C@@](O)(C(=O)OC)[C@H](OC(C)=O)[C@]5(CC)C=CCN6CC[C@]43[C@@H]65)C2)C1` [Vincristine sulfate] the value was 11700; for `COc1cc2c(Oc3ccc(NC(=O)C4(C(=O)Nc5ccc(F)cc5)CC4)cc3F)ccnc2cc1OCCCN1CCOCC1` [Foretinib], 69800; for `O=S(=O)(c1cccc2cnccc12)N1CCCNCC1` [Fasudil HCl], 105000.
`Cc1ccc(C(=O)Nc2ccc(CN3CCN(C)CC3)c(C(F)(F)F)c2)cc1C#Cc1cnc2cccnn12` [Ponatinib]: the “area under viability curve” value is 90800.
Take `Cc1[nH]c2ccccc2c1CCNCc1ccc(/C=C/C(=O)NO)cc1` [Panobinostat]: the “area under viability curve” value turned out to be 4440.
Still for that read-out and setting: for `CC(=O)[O-].CC(=O)[O-].N.NC1CCCCC1.[Cl-].[Cl-].[Pt+4]` [Satraplatin] the value was 51800; for `COc1cc2c(cc1OC)CN(CCc1ccc(NC(=O)c3cccc4c(=O)c5cccc(OC)c5[nH]c34)cc1)CC2` [Elacridar], 106000; for `Clc1ccc(Nc2nnc(Cc3ccncc3)c3ccccc23)cc1` [Vatalanib HCl], 101000.
As for `CC(C)(C)c1nc(-c2cccc(NS(=O)(=O)c3c(F)cccc3F)c2F)c(-c2ccnc(N)n2)s1` [Dabrafenib], the “area under viability curve” value is 91900.
In the case of `O=C(c1cc(Cc2n[nH]c(=O)c3ccccc23)ccc1F)N1CCN(C(=O)C2CC2)CC1` [Olaparib], the “area under viability curve” value was found to be 106000.
The same measure, in the same setting: for `CCCCC(=O)OCC(=O)[C@]1(O)Cc2c(O)c3c(c(O)c2[C@@H](O[C@H]2C[C@H](NC(=O)C(F)(F)F)[C@H](O)[C@H](C)O2)C1)C(=O)c1c(OC)cccc1C3=O` [Valrubicin] the value was 56100; for `Nc1ccn([C@@H]2O[C@H](CO)[C@@H](O)C2(F)F)c(=O)n1` [Gemcitabine hydrochloride], 18500; for `CC(=O)O[C@@]12CO[C@@H]1C[C@H](O)[C@@]1(C)C(=O)[C@H](O)C3=C(C)[C@@H](OC(=O)[C@H](O)[C@@H](NC(=O)OC(C)(C)C)c4ccccc4)C[C@@](O)([C@@H](OC(=O)c4ccccc4)[C@H]21)C3(C)C` [Docetaxel], 14800.
Same read-out and setting: the value for `Nc1c(O)cc(O)cc1C=Cc1ccc(O)cc1` [Aminoresveratrol sulfate] was 94500; that for `CCOC(=O)C1=CN(Cc2ccccc2)C=C(C(=O)OCC)C1c1ccccc1` was 101000.
The same measure, in the same setting: the value for `CCCN(CCN1CCN(c2ccccc2OC)CC1)C1CCc2ncsc2C1` (stereo not given) was 98700; that for `CC(=O)[C@]1(O)Cc2c(O)c3c(c(O)c2[C@@H](O[C@H]2C[C@H](N)[C@H](O)[C@H](C)O2)C1)C(=O)c1ccccc1C3=O` [Idarubicin HCl] was 2990.

Still in this test, the particulars now being: 72 h compound exposure (96 h after seeding) h; trametinib co-treatment 1 µM.
`COc1cccc2c1C(=O)c1c(O)c3c(c(O)c1C2=O)C[C@@](O)(C(C)=O)C[C@@H]3O[C@H]1C[C@H](NC(=O)OCc2ccc(O[C@@H]3O[C@H](CO)[C@H](O)[C@H](O)[C@H]3O)c([N+](=O)[O-])c2)[C@H](O)[C@H](C)O1`: the “area under viability curve” value came to 24400.
With `Cc1cc(NC(=O)Nc2ccc(N(C)C)cc2)c2cc(F)cc(F)c2n1`, the “area under viability curve” value was 96300.
Same read-out and setting: for `Cc1cc2c(F)c(Oc3ncnn4cc(OC[C@@H](C)OC(=O)[C@H](C)N)c(C)c34)ccc2[nH]1` [Brivanib alaninate] the value was 102000; for `CC[C@]1(O)C[C@H]2CN(CCc3c([nH]c4ccccc34)[C@@](C(=O)OC)(c3cc4c(cc3OC)N(C=O)[C@H]3[C@@](O)(C(=O)OC)[C@H](OC(C)=O)[C@]5(CC)C=CCN6CC[C@]43[C@@H]65)C2)C1` [Vincristine sulfate], 10700.
The same measure, in the same setting: for `COc1cc2c(Oc3ccc(NC(=O)C4(C(=O)Nc5ccc(F)cc5)CC4)cc3F)ccnc2cc1OCCCN1CCOCC1` [Foretinib] the value was 67400; for `O=S(=O)(c1cccc2cnccc12)N1CCCNCC1` [Fasudil HCl], 98600; for `Cc1ccc(C(=O)Nc2ccc(CN3CCN(C)CC3)c(C(F)(F)F)c2)cc1C#Cc1cnc2cccnn12` [Ponatinib], 87200.
Still for that read-out and setting: the value for `Cc1[nH]c2ccccc2c1CCNCc1ccc(/C=C/C(=O)NO)cc1` [Panobinostat] was 1830; that for `CC(=O)[O-].CC(=O)[O-].N.NC1CCCCC1.[Cl-].[Cl-].[Pt+4]` [Satraplatin] was 43200.
In the case of `COc1cc2c(cc1OC)CN(CCc1ccc(NC(=O)c3cccc4c(=O)c5cccc(OC)c5[nH]c34)cc1)CC2` [Elacridar], the “area under viability curve” value was determined as 106000.
The same measure, in the same setting: for `Clc1ccc(Nc2nnc(Cc3ccncc3)c3ccccc23)cc1` [Vatalanib HCl] the value was 99900; for `CC(C)(C)c1nc(-c2cccc(NS(=O)(=O)c3c(F)cccc3F)c2F)c(-c2ccnc(N)n2)s1` [Dabrafenib], 101000; for `O=C(c1cc(Cc2n[nH]c(=O)c3ccccc23)ccc1F)N1CCN(C(=O)C2CC2)CC1` [Olaparib], 108000.
As for `CCCCC(=O)OCC(=O)[C@]1(O)Cc2c(O)c3c(c(O)c2[C@@H](O[C@H]2C[C@H](NC(=O)C(F)(F)F)[C@H](O)[C@H](C)O2)C1)C(=O)c1c(OC)cccc1C3=O` [Valrubicin], the “area under viability curve” value stood at 38700.
Still for that read-out and setting: for `Nc1ccn([C@@H]2O[C@H](CO)[C@@H](O)C2(F)F)c(=O)n1` [Gemcitabine hydrochloride] the value was 11600.
Same read-out and setting: the value for `CC(=O)O[C@@]12CO[C@@H]1C[C@H](O)[C@@]1(C)C(=O)[C@H](O)C3=C(C)[C@@H](OC(=O)[C@H](O)[C@@H](NC(=O)OC(C)(C)C)c4ccccc4)C[C@@](O)([C@@H](OC(=O)c4ccccc4)[C@H]21)C3(C)C` [Docetaxel] was 17500; that for `Nc1c(O)cc(O)cc1C=Cc1ccc(O)cc1` [Aminoresveratrol sulfate] was 90100.
In the case of `CCOC(=O)C1=CN(Cc2ccccc2)C=C(C(=O)OCC)C1c1ccccc1`, the “area under viability curve” value was 102000.
On the same count and under the same terms, for `CCCN(CCN1CCN(c2ccccc2OC)CC1)C1CCc2ncsc2C1` (stereo not given) the value was 105000; for `CC(=O)[C@]1(O)Cc2c(O)c3c(c(O)c2[C@@H](O[C@H]2C[C@H](N)[C@H](O)[C@H](C)O2)C1)C(=O)c1ccccc1C3=O` [Idarubicin HCl], 1300.

The record behind these values is the supplement of paper PMC9990464.
